The text below walks through data of the supplement of paper PMC10126150.

The subject of this data set is ATP. Description: switch fluorescence ratio, 500 uM ATP over buffer (Cy3 cluster intensity, sum of 5 cycles each) (fold (ratio)); higher = stronger signal-on switching upon ATP binding; sequences stand for … in TCGTCGGCAGCGTCAGATGTGTATAAGAGACAGTTTTTTTTTTTTTTTTTTTTTTTTT…TC. Conditions: aptamer strand: ATP DNA aptamer (quencher-CACCTGGGGGAGTATTGCGGAGGAAGG + anchor), 100 nM annealed; ATP concentration: 500 uM; one replicate. The gist of the method: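 Exposure to 500 uM ATP lasted 15 min at 22 °C before imaging, and a selection-buffer image was taken beforehand, for Cy3-labelled switching-strand clusters on a modified Illumina MiSeq flow-cell annealed to 100 nM quencher-labelled ATP aptamer. Five buffer/ATP cycles were run with NaOH stripping and re-annealing between them. The fluorescence ratio per cluster is summed target-cycle over summed buffer-cycle Cy3 intensity, averaged per switch-domain sequence. Clusters outside 100-1000 RFU were excluded.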

Values marked as one replicate rest on one cluster of the flow cell; about a third of the high ones do not repeat.

Consider TTTGCTCAT, for which the switch fluorescence ratio was 0.955. Next, CACGTCTTAC: 1.34; GGAAAGCGCA: 1.02; CGATAAAGTC: 1.02.

On to ATTGTTCCAA, for which the switch fluorescence ratio came to 0.965. ACCTGATACT: the switch fluorescence ratio turned out to be 1.09. Consider GCGGAATGAG, for which the switch fluorescence ratio was 1.03.

On to ATAATCCGTT, for which the switch fluorescence ratio was found to be 1.02. Next, GGTCTCTCCT: 0.979; ATACAAGATT: 1.

For GATTATAT, the switch fluorescence ratio was found to be 0.999. Turning to GCGGGTGATT, the switch fluorescence ratio amounted to 1.04. Consider TTAATCCCCT, for which the switch fluorescence ratio amounted to 1.03. Next, GACAACCGCA: 1.2. Next, TAAGTACTGC: 1.19; AACGGGCTAC: 1.14; TGATCATAAA: 0.955. In the case of TGTTTTAACG, the switch fluorescence ratio came out at 0.992.

As for ACCGCTCTCT, the switch fluorescence ratio stood at 1.31. On to GCCTGCTTTG, for which the switch fluorescence ratio is 1.03. AAGTCACATA: the switch fluorescence ratio stood at 1.08. Next, CCTAAATGAC: 1.2. For TGCGAGAATA, the switch fluorescence ratio came out at 0.935. Next, TCTAATATCC: 0.956.

Take GGTCGTCCGG: the switch fluorescence ratio came to 1.01.

Consider GACACCTTAT, for which the switch fluorescence ratio came to 1.07. With CAATAGAATC, the switch fluorescence ratio was 1.02. Next, TTTGCACTCG: 0.995. On to GCAGCAAGTA, for which the switch fluorescence ratio came out at 1.65. Next, TTGATGAGGC: 1.05; CTTCAGAGGG: 1. On to TATAACCACA, for which the switch fluorescence ratio is 1.07. Next, TTCCAATAGA: 0.997; TTCAACGGG: 1.11; TGAGAAAATA: 0.99. Next, CATCGGATGG: 1.08; GAGGCTTGGA: 1; TAGGTGGGCG: 1.03.

Consider GATTCTAAGT, for which the switch fluorescence ratio turned out to be 0.994. Next, ATCCACGGTA: 1.19; TCCTGGACCA: 0.984; GGTCCAGTTT: 1.02.

In the case of TACCTCTATA, the switch fluorescence ratio came out at 1.09.

Turning to AGCCTAATAG, the switch fluorescence ratio stood at 1.07. GTGACTCATC: the switch fluorescence ratio worked out at 1.01. Next, CGGCTCTGCG: 1.02; TTAGCCGAAC: 1.05. On to GCAGGTAGCT, for which the switch fluorescence ratio came out at 1.02. Next, CAAGACCTC: 0.96; ATATTTGCGG: 0.994; GATGAGTCGA: 0.98. Next, TGCACTGTCG: 1.02; AAAAGGATGT: 1.02. Next, GTCGCAGGTC: 1.08.

GTCTGGATTC: the switch fluorescence ratio was 0.969. Next, GGTAACACTG: 1.03; TATGTCCCTG: 0.971; ACATTTGCGT: 0.962. Next, GATCGGAAGG: 0.953; ATTTCAAGGT: 1. Next, CTAGTGTCCG: 1.01; GATTGTACGG: 1.03; AACCGAGCCA: 1.04. Consider CTGGCATCGA, for which the switch fluorescence ratio was found to be 1.04. Next, GCAATGGAAA: 0.995; AGTCAGTCCC: 1.05; ATCGGGATGT: 0.994. Next, TTTATAAGTG: 1.06; GGTTGCGACC: 0.957; CCGGGGGG: 0.997. Consider TTCACTATGA, for which the switch fluorescence ratio was 1.03. With TTTCAGTAGT, the switch fluorescence ratio turned out to be 0.986.

Regarding TTCATAGACC, the switch fluorescence ratio worked out at 1.05. Next, CCGACGGGGA: 4.23. Next, CACTTAAATT: 1.05.

For the sequence GGCATAATGT, the switch fluorescence ratio came out at 0.951.

Take TATGTATAGC: the switch fluorescence ratio is 1.02. Next, GGTTGGGACG: 1.02; TGAATTAACG: 1.08. Next, AGAATCAGGG: 1.02; GTTTGAGGCA: 1. Next, GGAGGCTCTG: 0.974; TTATACGGGG: 1.1; TGTTATGTC: 1. Consider TACGTCGTTT, for which the switch fluorescence ratio amounted to 0.951. Next, AGGCAGTGCC: 0.975; TTAAGCGACA: 0.999; GTCGGGCGGA: 0.988.

For CCAGGCCTAA, the switch fluorescence ratio came out at 0.999. Next, ACGCGGTGTC: 1.06; TGGAGAAACG: 0.974; AGGTGTGACT: 0.995. Next, TGCCGCATAA: 5.12; TTTTCCAATT: 1.1.

Take TGTTCAGGCA: the switch fluorescence ratio was 1.02. Next, AGCAAATCTC: 2.92; CGGTGGACTT: 0.977. Next, TTCCTGTATA: 0.975; ACAATTCCTT: 1.03; TGGCTAGTTT: 0.965.

For GAATTGTGGC, the switch fluorescence ratio was 0.965.

As for AATCAGTATA, the switch fluorescence ratio came to 1.02. Next, CGTCGGGCAT: 0.984; AAAGAAGGCC: 1.05. Next, TACATCTACG: 1.28; CGACGCCTGT: 1.75; AGTGGATATG: 0.988.

Regarding AGAAGAACTA, the switch fluorescence ratio came to 1.03. As to GGATTCCCGA, the switch fluorescence ratio was found to be 1.05. Next, CAAGGCTAAA: 1; GCTTTGGCTG: 0.99; GCGCAACCAC: 2.28. Next, GAACTGAACG: 1.1; TGGAATCGTC: 0.986; TAGAAGATAC: 1.86. Next, GGAGAGACTC: 0.832.

On to AACCGCAGAG, for which the switch fluorescence ratio stood at 1.25. Next, ACAGGTTCCT: 1.09; ATCATAGAGT: 1; AGTAATGTCT: 0.988.
